Binding signal data for 14 molecules are collected here from publication PMC12136788.

This is one part of the list.

First the molecules themselves.
T1: UNK ZnF1-3 (human, UniProt Q9C0B0 31-174)
T1 sequence: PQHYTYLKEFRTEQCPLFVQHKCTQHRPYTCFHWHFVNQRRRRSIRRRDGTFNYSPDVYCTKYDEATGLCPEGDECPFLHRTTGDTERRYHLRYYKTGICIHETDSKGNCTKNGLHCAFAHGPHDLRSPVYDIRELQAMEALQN

B1: chr5:151611259:151611260:+_ENSMUSG00000034021_ENSMUST00000016569|mus_hu|FALSE|FALSE (ssRNA)
RNA: GGGAGUUCUACAGUCCGACGAUCCAUUUUCUGAACAUAACGUUCAAGAGGAAAUAUCUAUACACAAUAACAUUCUAGACUAUUAAAAACUCAUUCAAAUUACAGAAUUUUAUUGAUACAGUAGAUUAAUAAAAACUGAAAGGACAACAGAGGAUUGAGCAUCA
B2: chr11:85347198:85347199:+_ENSG00000171204_ENST00000358867|hu_mus|FALSE|FALSE (ssRNA)
RNA: GGGAGUUCUACAGUCCGACGAUCCCUUGCACGUGGUUUUUCACAUAUAUUGUAAUGAUGUAAGCCAGUAAAAGCUCCCAUUACUAUCUGAAAGAACAGAGGAAUAGCCAUUGCUUUCAUCCCAGUUUGACAAAGGAGCAACCACAACAGAGGAUUGAGCAUCA
B3: chr11:86516163:86516164:-_ENSMUSG00000047126_ENSMUST00000103186|mus_mus|FALSE|FALSE (ssRNA)
RNA: GGGAGUUCUACAGUCCGACGAUCAAGGCUGUCUUUCUUGCACAACUCUACACUCUGUUUCCAGCGAUUGUUGCCUUUGAAGAGAUAAGCAGCAAUUCUUCUGAAUUCAAUGAGUUCGUGUUUUUCCAAACGCUGAGCAAGUGACAACAGAGGAUUGAGCAUCA
B4: chr17:20919178:20919179:-_ENSG00000124422_ENST00000537526|hu_hu|motif|central (ssRNA)
RNA: GGGAGUUCUACAGUCCGACGAUCGAGCACGUCCAGGGCCGCGAUGAGGAACUCGUGGGCGUCCUGCUGCUCGUAGCCUGCGGGGUGCCUCGCGUGGGUCCACACCAGGUGCAGCAACUUAUACGGGAUGUGAGGGGACCGGUGCAACAGAGGAUUGAGCAUCA
B5: chr7:44244176:44244177:+_ENSG00000106636_ENST00000223369|hu_mus|hu_hu_hu_mus_False|48_78 (ssRNA)
RNA: GGGAGUUCUACAGUCCGACGAUCACUGUCGCUCCGGACGUAGACAUGGCAAAGAUAGUCUUGUUCUUUGACAGAAGCUCUGCUGCCUUUCGAUGAGCGUUCCACAAUCAGUUGACUUGUAAAGGUCAUGAAUUCCUGCACACUCAACAGAGGAUUGAGCAUCA
B6: chr6:41757443:41757444:+_ENSG00000214736_ENST00000398881|hu_mus|hu_hu_hu_mus_False|68_88 (ssRNA)
RNA: GGGAGUUCUACAGUCCGACGAUCGAACCGUGCAGAGGCAACAUCUCGGAAUUCUGCGGGGGAUGGGGGAACAAAAGGGGGGGGUUCAGGCAAGGAGAGGGAGUCAACUUCAGCUGCCACUCAGGUAGGAUCUUGUGGUCACAGCAACAGAGGAUUGAGCAUCA
B7: chr4:83347727:83347728:-_ENSG00000152795_ENST00000602300|hu_mus|FALSE|FALSE (ssRNA)
RNA: GGGAGUUCUACAGUCCGACGAUCCCAGUAUAAUCAUAGCCGCCAUAGCCACUAUAGUUCUGAUCACCACCAUAGGCACUAUUAUAAUUUCCAUAUCCUUGAUCAUAAUAGUUAUUAAAUCCUUGGUUCCAGUUUUGGCCCUGACAACAGAGGAUUGAGCAUCA
B8: chr11:77340908:77340909:-_ENSG00000074201_ENST00000525064|hu_hu|hu_hu_hu_mus_True|8_48 (ssRNA)
RNA: GGGAGUUCUACAGUCCGACGAUCGUUUGGAUCCCUGGACACCGCAUGUAAACUAAUGGUGGGGUAUUCCAGUGAGAAUCCUAAUCCAGAGCCAUCUAACCAGGACAGGCGGCUCUCCGCGAUGUAAAGGGUACCAGUGCCGAGCAACAGAGGAUUGAGCAUCA
B9: chr10:98431539:98431540:+_ENSMUSG00000019943_ENSMUST00000020107|mus_mus|motif|central (ssRNA)
RNA: GGGAGUUCUACAGUCCGACGAUCCGUAAUUCCAAAGUCUCCAUCAUGGUUAGCUUCUUUCAAAGAGUUCUUCACACCGCGGUACGCAACUGAGUUGUUGGCCAUGUCGCCCAUCACAAGGAUAAUUUAUUAGGAGGAAAAUGUCAACAGAGGAUUGAGCAUCA
B10: chr17:64630434:64630435:-_ENSMUSG00000024083_ENSMUST00000172818|mus_mus|FALSE|FALSE (ssRNA)
RNA: GGGAGUUCUACAGUCCGACGAUCCCUGUUUAUUGUUUAUGAUUUACACGGAAAAUGCCAGGCUGGGAUUGUAGACCAAUAAACCAAUCAUCACAGUUAGACCUGGGCUUUUGAAAACCUUGCAUUCCGUUUUAACAGUUCAUACAACAGAGGAUUGAGCAUCA
B11: 117583245_117583365_974_3pUTR_ENSMUSG00000025571_ENSMUST00000138299|mouse|control|control (ssRNA)
RNA: GGGAGUUCUACAGUCCGACGAUCCCUCCAUUCCCUUCCUUCUGCACAGCACUGCUGGAUCCGUUCUGCUUAGCACUUAAUGCUGAGUUCACAGUGUCUCCAUUCCCUUGACUGAACCCACAAUUGGUACUUCCUGUGGCAGGGCAACAGAGGAUUGAGCAUCA
B12: 37820842_37820962_92_5pUTR_ENSMUSG00000029833_ENSMUST00000120428|mouse|control|control (ssRNA)
RNA: GGGAGUUCUACAGUCCGACGAUCGGCCGGAAGACGCGGAGCUGUCAACGGGGACCGGUUCCCGCACCGCGACGCCGCCGCGCGGGCCGAUAGGCAAACCGCCACCGAGACGCUCGAUUCCGCCCAGCGCGCCCGCCCGUGCCUCAACAGAGGAUUGAGCAUCA
B13: chr1:220355683:220355684:-_ENSG00000118873_ENST00000358951|hu_mus|motif|central (ssRNA)
RNA: GGGAGUUCUACAGUCCGACGAUCGCUGUGGCACAUCUCUUCAGUGGAGCUUUCUCCAUGCAAACACUUCCAGAAAAAGAAACUGCCGGGAGCCACACACUCCUCCUCUCCGACCUUCCUUAUGCUCAGUGCAUCCUUCUCAUACAACAGAGGAUUGAGCAUCA
B14: 10099421_10100641_605_CDS_ENSG00000071127_ENST00000499869|human|control|control (ssRNA)
RNA: GGGAGUUCUACAGUCCGACGAUCGCUCUGCUUGAUGUCCACGCUGUUGAUGACUUUGUUGUGUCCUGUAAUCUCGCCCACAGAAGAGCCACUAUCCCAGAGGAAGACUGCUCCAAACUUCUCCCUUCCUUCCCCGACCACGGCCAACAGAGGAUUGAGCAUCA

For the test, the target named is T1, UNK ZnF1-3. The test is described as follows: nsRBNS (natural sequence RNA bind-n-seq); RBNS binding buffer (assumed for nsRBNS): 25 mM Tris pH 7.5, 150 mM KCl, 3 mM MgCl2, 0.01% Triton X-100, 500 ug/ml BSA, 20 U/ml SUPERase-In, 4 C; UNK is unkempt and MSI1 is Musashi-1; names of the RNAs are library labels; protein concentration not given here; high values mean tight binding.
B1 registered a binding signal of 0.724 enrichment R.

Turning to B2, the binding signal came to 2.02 enrichment R.

With B3, the binding signal is 0.59 enrichment R.

The molecule B4 came in with a binding signal of 0.947 enrichment R.

In the case of B5, the binding signal is 0.663 enrichment R.

As to B6, the binding signal is 2.93 enrichment R.

As for B7, the binding signal was 1.04 enrichment R.

On to B8, for which the binding signal is 1.19 enrichment R.

Molecule B9 yielded a binding signal of 1.5 enrichment R.

For B10, the binding signal is 1.46 enrichment R.

With B11, the binding signal turned out to be 0.704 enrichment R.

The molecule B12 registered a binding signal of 0.69 enrichment R.

Regarding B13, the binding signal amounted to 0.961 enrichment R.

B14 came in with a binding signal of 1.49 enrichment R.
